Consider 26 molecules from article PMC6919601, “Identification of Plasmodium dipeptidyl aminopeptidase allosteric inhibitors by high throughput screening” (PLoS ONE, 2019).

The whole screen tested about 110,000 compounds, of which about 230 (0.21%) showed an effect of 50% or more. Some of the results follow.
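Also: 30 min substrate incubation versus DMSO and 10 µM JCP410 controls.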

DPAP1, sequence (Q8IIJ9 whole entry, looked up): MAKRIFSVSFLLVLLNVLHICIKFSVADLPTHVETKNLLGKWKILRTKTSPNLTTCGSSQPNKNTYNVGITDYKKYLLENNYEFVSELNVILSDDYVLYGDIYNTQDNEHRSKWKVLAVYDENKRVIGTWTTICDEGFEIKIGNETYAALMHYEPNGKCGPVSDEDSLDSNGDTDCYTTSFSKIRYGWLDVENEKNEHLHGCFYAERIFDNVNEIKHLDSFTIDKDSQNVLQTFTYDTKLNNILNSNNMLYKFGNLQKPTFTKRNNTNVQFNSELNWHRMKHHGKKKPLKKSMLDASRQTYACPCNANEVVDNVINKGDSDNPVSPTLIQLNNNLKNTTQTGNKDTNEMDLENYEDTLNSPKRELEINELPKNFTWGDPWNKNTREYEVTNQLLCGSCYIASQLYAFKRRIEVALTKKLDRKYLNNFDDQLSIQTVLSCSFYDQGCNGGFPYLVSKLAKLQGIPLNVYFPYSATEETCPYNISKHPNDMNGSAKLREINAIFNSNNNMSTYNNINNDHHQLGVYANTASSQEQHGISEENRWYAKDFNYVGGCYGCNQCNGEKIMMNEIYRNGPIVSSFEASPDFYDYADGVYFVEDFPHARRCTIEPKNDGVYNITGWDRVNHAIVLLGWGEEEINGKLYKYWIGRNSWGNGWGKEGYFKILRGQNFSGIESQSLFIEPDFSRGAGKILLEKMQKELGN

The test has as its target DPAP1 (Plasmodium falciparum, UniProt Q8IIJ9). The test is described as follows: primary screen, percent inhibition; read by cleavage of a fluorogenic dipeptide substrate; higher = more effect of the substance. Also on record: species or system P. falciparum D10 trophozoite lysates; single well.
On to `Cc1ccc(OCC(O)Cn2c(CO)nc3ccccc32)cc1` (centres unmarked), for which the “% Inhibition @ 10 uM” value is -3.41%.
`CCCN(CCO)CC(c1ccccc1)c1ccccc1`: the “% Inhibition @ 10 uM” value was 6.68%.
To `O=C(c1ccc(S(=O)(=O)N2CCCCCC2)cc1)N1CCN(c2ccccc2F)CC1` belongs 2.49%.
In the case of `CC(C)Oc1ccc(C2N3CC4(C)CN2CC(C)(C3)C4)cc1` (centres unmarked) it was -0.0735%.
To `CC(C)C[C@H](NC(=O)OCc1ccccc1)C(=O)N[C@H]1CCCN(C(=O)OC(C)(C)C)C1O` (some centres unmarked) belongs -1.82%.
With `CC(C)/N=C(\NS(=O)(=O)c1ccc(Cl)cc1)c1ccccc1`, the “% Inhibition @ 10 uM” value is -0.0267%.
In the case of `O=C(CN1C(=O)c2ccccc2C1=O)Nc1ccccc1Cl` it was -6.82%; in that of `CCCN1CCN(CCCNC(=O)CN2N=C(c3ccc(C)cc3)CCC2=O)CC1`, 0.514%; in that of `CCOC(=O)c1c(C)[nH]c(C)c1S(=O)(=O)NCC(=O)Nc1nc2ccc(Cl)cc2s1`, -4.93%.
With `CC(C)C[C@H](NC(=O)OCc1ccccc1)C(=O)N[C@H](C#N)CCCCNC(=O)OC(C)(C)C`, the “% Inhibition @ 10 uM” value was -6.46%.
In the case of `CCOC(=O)c1[nH]nc2c1C(=O)N(CC)C2=O` it was 4.96%.
Turning to `CN1C(=O)NC(=O)/C(=C\c2cc(Br)c(OCC(=O)O)c(Br)c2)C1=O`, the “% Inhibition @ 10 uM” value is given as -2.26%.
In the case of `COc1ccc(CN2CCN(Cc3ccccc3F)CC2)cc1` it was -7.76%.
To `CC1(C)CC2=Nc3ccccc3N(C(=O)C3CC3)C(c3cccs3)C2=C(O)C1` (centres unmarked) belongs 0.851%; to `O=S(=O)(NCC1CCN(Cc2ccccc2F)CC1)c1ccc(-c2ccc(O)nn2)s1`, -0.658%.
To `CCCCOc1ccc(C2=N/C(=C/c3ccccc3F)C(=O)O2)cc1` belongs -6.06%.
Turning to `Cc1c(C(=O)N2CCCC2)oc2c1-c1nn(Cc3ccccc3Cl)cc1CC2`, the “% Inhibition @ 10 uM” value amounted to 4.85%.
To `CN(CC(=O)NC1CCCCC1)S(=O)(=O)c1ccc2[nH]c(-c3ccccc3)nc2c1` belongs 3.84%; to `Cc1ccc2cnn(CC(=O)NC(C)CCc3ccccc3)c2c1` (centres unmarked), -2.88%.
In the case of `Cc1nn2c(N)cc(-c3ccccc3)nc2c1-c1ccccc1` it was 6.81%.
As to `CCN(CC)CCNC(=O)C(c1ccccc1)N1Cc2ccccc2C1=O` (centres unmarked), the “% Inhibition @ 10 uM” value turned out to be 2.71%.
As to `CC(=O)C1=C(C)OC(N)=C(C#N)C1c1cccc(Cl)c1Cl` (centres unmarked), the “% Inhibition @ 10 uM” value is listed as 1.96%.
To `O=C(NCCO)c1cc(C(=O)NCCO)cc(C(=O)NCCO)c1` belongs -5.36%; to `CC1(C)CC2=Nc3ccccc3NC(c3ccccc3C(=O)O)C2=C(O)C1` (centres unmarked), -3.5%; to `COc1ccc(C2C(C(=O)c3ccc(Br)cc3)=C(O)C(=O)N2c2cccnc2)cc1OC` (centres unmarked), -11.4%.
To `Cn1c(=O)[nH]c(=O)c2c1nc(NCCCO)n2CC(O)COc1ccc(Cl)cc1` (centres unmarked) belongs -0.053%.
